Measurements reported in PMC5522996, “Big conductance calcium‐activated potassium channel openers control spasticity without sedation” (British Journal of Pharmacology, 2017).

Experiments:
[1] = system: cytochrome p450 enzymes; assay: Inhibition of cytochrome p450 enzymes (summary); format: in vitro ADME, human; details: 10 μM
[2] = biological target: T1, D1 (Homo sapiens, UniProt P21728); assay: Receptor binding profile of VSN16R; details: 10µM VSN16R
T1 construct: purchased Cerep; Chantest; DiscoveRx; Multispan; MDS Pharma Services

[3] = biological target: T2, hGPR55 (HEK293.GPR55) (Homo sapiens, UniProt Q9Y2T6); assay: Ca2+ Ion Flux assay, HEK293.GPR55; format: cell-based
T2 construct: expressed in transfected cells; host or cells: HEK293

[4] = system: healthy humans; assay: Phase I single dose: heart rate and blood pressure supine/standing
[5] = biological target: T3, GAL2 (Homo sapiens, UniProt O43603); assay: Receptor binding profile of VSN16R; details: 10µM VSN16R
T3 construct: purchased Cerep; Chantest; DiscoveRx; Multispan; MDS Pharma Services
T3 sequence (O43603 1-387): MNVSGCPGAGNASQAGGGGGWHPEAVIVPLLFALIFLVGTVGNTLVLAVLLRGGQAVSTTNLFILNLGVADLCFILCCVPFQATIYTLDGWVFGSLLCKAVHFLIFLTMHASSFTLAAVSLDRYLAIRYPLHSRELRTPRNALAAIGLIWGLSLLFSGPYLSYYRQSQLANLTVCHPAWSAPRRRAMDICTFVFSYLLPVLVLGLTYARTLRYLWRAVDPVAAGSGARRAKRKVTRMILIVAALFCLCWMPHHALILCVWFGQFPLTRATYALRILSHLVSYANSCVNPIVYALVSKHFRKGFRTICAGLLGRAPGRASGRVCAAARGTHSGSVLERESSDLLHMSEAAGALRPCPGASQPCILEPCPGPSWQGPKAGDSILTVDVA

T2 sequence (Q9Y2T6 whole entry): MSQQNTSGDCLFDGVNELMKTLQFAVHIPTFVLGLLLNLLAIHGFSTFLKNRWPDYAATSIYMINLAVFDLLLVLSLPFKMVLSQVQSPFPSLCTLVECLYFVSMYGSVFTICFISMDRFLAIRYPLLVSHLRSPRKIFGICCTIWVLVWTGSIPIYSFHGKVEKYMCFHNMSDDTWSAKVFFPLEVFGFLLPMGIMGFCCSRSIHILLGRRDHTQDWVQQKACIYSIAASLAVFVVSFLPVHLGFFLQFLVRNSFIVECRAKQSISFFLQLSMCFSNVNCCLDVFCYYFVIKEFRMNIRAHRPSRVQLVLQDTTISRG
T1 sequence (P21728 whole entry): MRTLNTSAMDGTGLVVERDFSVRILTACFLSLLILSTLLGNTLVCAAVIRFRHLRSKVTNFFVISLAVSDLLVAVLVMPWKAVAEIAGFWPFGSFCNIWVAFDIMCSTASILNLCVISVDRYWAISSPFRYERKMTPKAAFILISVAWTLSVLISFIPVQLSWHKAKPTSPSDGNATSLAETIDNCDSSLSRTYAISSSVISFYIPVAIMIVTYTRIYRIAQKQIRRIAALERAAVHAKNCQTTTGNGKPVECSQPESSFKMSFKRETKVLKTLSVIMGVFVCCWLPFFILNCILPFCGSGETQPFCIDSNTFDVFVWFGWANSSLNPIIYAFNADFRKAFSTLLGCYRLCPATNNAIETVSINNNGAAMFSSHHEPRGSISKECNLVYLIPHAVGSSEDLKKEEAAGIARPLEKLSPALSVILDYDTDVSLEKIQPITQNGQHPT

## C[C@H](CO)NC(=O)c1cccc(/C=C\CCCC(=O)N(C)C)c1 [VSN16R]
[1]
  Inhibition of cytochrome p450 enzymes: no significant inhibition
[2]
  Activity: Negligible Activity
[3]; Figure S5E
  Calcium fluxes in HEK293.GPR55: do not respond
[3]; max. tested 10μM
  Activity of VSN16R (Max. Tested): No Activity
[4]; 25mg, 30min
  Diastolic Blood Pressure Standing: 75 ± 6 mm Hg
  Diastolic Blood Pressure Supine: 65 ± 5 mm Hg
  Heart Rate Standing: 72 ± 8 bpm
  Heart Rate Supine: 55 ± 10 bpm
  Systolic Blood Pressure Standing: 120 ± 6 mm Hg
  Systolic Blood Pressure Supine: 115 ± 7 mm Hg
[4]; 25mg, 60min
  Diastolic Blood Pressure Standing: 75 ± 7 mm Hg
  Diastolic Blood Pressure Supine: 63 ± 6 mm Hg
  Heart Rate Standing: 75 ± 9 bpm
  Heart Rate Supine: 54 ± 9 bpm
  Systolic Blood Pressure Standing: 119 ± 8 mm Hg
  Systolic Blood Pressure Supine: 114 ± 5 mm Hg
[4]; 800mg, 30min
  Diastolic Blood Pressure Standing: 80 ± 9 mm Hg
  Diastolic Blood Pressure Supine: 68 ± 14 mm Hg
  Heart Rate Standing: 81 ± 10 bpm
  Heart Rate Supine: 57 ± 6 bpm
  Systolic Blood Pressure Standing: 120 ± 6 mm Hg
  Systolic Blood Pressure Supine: 115 ±9 mm Hg
[4]; 800mg, 60min
  Diastolic Blood Pressure Standing: 81 ± 10 mm Hg
  Diastolic Blood Pressure Supine: 72 ± 8 mm Hg
  Heart Rate Standing: 84 ± 11 bpm
  Heart Rate Supine: 59 ± 6 bpm
  Systolic Blood Pressure Standing: 120 ± 8 mm Hg
  Systolic Blood Pressure Supine: 117 ± 7 mm Hg
[4]; humans
  Hypotension: did not induce hypotension
[5]
  Activity: Negligible Activity
